# Measured values taken from the supplement of paper PMC11876631.
# Where a chain is given by its changes, count along the chain named. Names and notes keep the numbering of the source. ± gives the standard deviation of the averaged measurements. Laboratory Escherichia coli strains with one amino-acid change in an essential protein, pooled on minimal glucose agar with carbenicillin or gentamicin at twice the control MIC (plus kanamycin and chloramphenicol for the plasmids), 48 h. Fold change of barcode share against drug-free plates; higher = less susceptible. Active = above 20 in both replicates (the paper's putatively resistant). '<' = one read or none on drug, '>' = one read or none on a drug-free plate. Shares are relative, so most strains fall below 1 when a few take over. Listed are strains with at least 15 reads on both drug-free plates, and hits; most hits rest on fewer reference reads. Replicate rank correlation about 0.5. Edits are read from barcodes.
# B1: tyrS V72A (protein)
# chain: MASSNLIKQLQERGLVAQVTDEEALAERLAQGPIALYCGFDPTADSLHLGHLVPLLCLKRFQQAGHKPVALAGGATGLIGDPSFKAAERKLNTEETVQEWVDKIRKQVAPFLDFDCGENSAIAANNYDWFGNMNVLTFLRDIGKHFSVNQMINKEAVKQRLNREDQGISFTEFSYNLLQGYDFACLNKQYGVVLQIGGSDQWGNITSGIDLTRRLHQNQVFGLTVPLITKADGTKFGKTEGGAVWLDPKKTSPYKFYQFWINTADADVYRFLKFFTFMSIEEINALEEEDKNSGKAPRAQYVLAEQVTRLVHGEEGLQAAKRITECLFSGSLSALSEADFEQLAQDGVPMVEMEKGADLMQALVDSELQPSRGQARKTIASNAITINGEKQSDPEYFFKEEDRLFGRFTLLRRGKKNYCLICWK
# B2: tyrS V72Q (protein)
# chain: B1 chain with A72Q
# B3: tyrS V72W (protein)
# chain: B1 chain with A72W
# B4: tyrS V72D (protein)
# chain: B1 chain with A72D
# B5: carA L206Q (protein)
# chain: MIKSALLVLEDGTQFHGRAIGATGSAVGEVVFNTSMTGYQEILTDPSYSRQIVTLTYPHIGNVGTNDADEESSQVHAQGLVIRDLPLIASNFRNTEDLSSYLKRHNIVAIADIDTRKLTRLLREKGAQNGCIIAGDNPDAALALEKARAFPGLNGMDLAKEVTTAEAYSWTQGSWTLTGGLPEAKKEDELPFHVVAYDFGAKRNIQRMLVDRGCRLTIVPAQTSAEDVLKMNPDGIFLSNGPGDPAPCDYAITAIQKFLETDIPVFGICLGHQLLALASGAKTVKMKFGHHGGNHPVKDVEKNVVMITAQNHGFAVDEATLPANLRVTHKSLFDGTLQGIHRTDKPAFSFQGHPEASPGPHDAAPLFDHFIELIEQYRKTAK
# B6: carA L206D (protein)
# chain: B5 chain with Q206D
# B7: carA L7A (protein)
# chain: B5 chain with L7A, Q206L
# B8: ispU V155A (protein)
# chain: MMLSATQPLSEKLPAHGCRHVAIIMDGNGRWAKKQGKIRAFGHKAGAKSVRRAVSFAANNGIEALTLYAFSSENWNRPAQEVSALMELFVWALDSEVKSLHRHNVRLRIIGDTSRFNSRLQERIRKSEALTAGNTGLTLNIAANYGGRWDIVQGARQLAEKVQQGNLQPDQIDEEMLNQHVCMHELAPVDLVIRTGGEHRISNFLLWQIAYAELYFTDVLWPDFDEQDFEGALNAFANRERRFGGTEPGDETA
# B9: ispU V192A (protein)
# chain: B8 chain with A155V, V192A
# B10: ispU L206Q (protein)
# chain: B8 chain with A155V, L206Q
# B11: ispU V155W (protein)
# chain: B8 chain with A155W
# B12: cdsA I7A (protein)
# chain: MLKYRLASAFVLIPVVIAALFLLPPVGFAIVTLVVCMLAAWEWGQLSGFTTRSQRVWLAVLCGLLLALMLFLLPEYHRNIHQPLVEISLWASLGWWIVALLLVLFYPGSAAIWRNSKTLRLIFGVLTIVPFFWGMLALRAWHYDENHYSGAIWLLYVMILVWGADSGAYMFGKLFGKHKLAPKVSPGKTWQGFIGGLATAAVISWGYGMWANLDVAPVTLLICSIVAALASVLGDLTESMFKREAGIKDSGHLIPGHGGILDRIDSLTAAVPVFACLLLLVFRTL
# B13: cdsA I7W (protein)
# chain: B12 chain with A7W
# B14: cdsA I7Q (protein)
# chain: B12 chain with A7Q
# Target: Escherichia coli (laboratory strain)
# Test: barcode share on antibiotic plates over drug-free plates; higher = less susceptible
# Conditions: antibiotic: carbenicillin; 2× MIC (3.1 µg/mL)
# Description: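 A pool of E. coli strains, each edited to carry one amino-acid change in an essential protein, was grown for 48 h on minimal glucose agar with or without antibiotic; strain barcodes were sequenced; mean of two replicates.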
row,Protein,fold change of barcode share
1,B1,0.487 ± 0.047
2,B2,0.348 ± 0.14
3,B3,0.372 ± 0.085
4,B4,0.37 ± 0.087
5,B5,0.468 ± 0.3
6,B6,0.458 ± 0.069
7,B7,3.03 ± 0.24
8,B8,0.562 ± 0.087
9,B9,0.13 ± 0.13
10,B10,0.354 ± 0.35
11,B11,0.0651 ± 0.038
12,B12,0.338 ± 0.076
13,B13,0.495 ± 0.14
14,B14,0.268 ± 0.057

# Same assay, conditions: antibiotic: gentamicin; 2× MIC (MIC 0.45 µg/mL)
row,Protein,fold change of barcode share
1,B1,< 0.00349
2,B2,0.00489 ± 0.0026
3,B3,0.00949 ± 0.01
4,B4,0.0121 ± 0.0034
5,B5,< 0.0119
6,B6,0.0187 ± 0.014
7,B8,0.264 ± 0.31
8,B9,< 0.0132
9,B10,< 0.0168
10,B11,0.0124 ± 0.0014
11,B12,< 0.00573
12,B13,0.00616 ± 0.0028
13,B14,0.00765 ± 0.0039
